In PubChem BioAssay AID488969 (Vanderbilt High Throughput Screening Facility, 2010):
The full ranking holds about 110,000 compounds; the median of “z-score” is about -0.1, and the highest 2% start at about 2. Some of the results follow. Active and inactive are the calls of the source.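 How the source made its calls: active means z-score in the third read window above 3 or below -3; inactive means the rest.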

What follows are compounds tested against Metabotropic glutamate receptor 8 (Rattus norvegicus) (UniProt P70579) (assay: mGluR8 Gi/Go-coupled signaling modulation – cell-based, rat, thallium flux, HTS, primary screen (AID 488969)). Conditions: HEK293 rat mGluR8, GIRK (G protein-gated inwardly rectifying potassium channel) thallium flux, FluoZin2; at 10 µM; stronger effect = higher value; submaximal glutamate (EC20) added with thallium.
UniProt P70579, sequence (P70579 whole entry, looked up): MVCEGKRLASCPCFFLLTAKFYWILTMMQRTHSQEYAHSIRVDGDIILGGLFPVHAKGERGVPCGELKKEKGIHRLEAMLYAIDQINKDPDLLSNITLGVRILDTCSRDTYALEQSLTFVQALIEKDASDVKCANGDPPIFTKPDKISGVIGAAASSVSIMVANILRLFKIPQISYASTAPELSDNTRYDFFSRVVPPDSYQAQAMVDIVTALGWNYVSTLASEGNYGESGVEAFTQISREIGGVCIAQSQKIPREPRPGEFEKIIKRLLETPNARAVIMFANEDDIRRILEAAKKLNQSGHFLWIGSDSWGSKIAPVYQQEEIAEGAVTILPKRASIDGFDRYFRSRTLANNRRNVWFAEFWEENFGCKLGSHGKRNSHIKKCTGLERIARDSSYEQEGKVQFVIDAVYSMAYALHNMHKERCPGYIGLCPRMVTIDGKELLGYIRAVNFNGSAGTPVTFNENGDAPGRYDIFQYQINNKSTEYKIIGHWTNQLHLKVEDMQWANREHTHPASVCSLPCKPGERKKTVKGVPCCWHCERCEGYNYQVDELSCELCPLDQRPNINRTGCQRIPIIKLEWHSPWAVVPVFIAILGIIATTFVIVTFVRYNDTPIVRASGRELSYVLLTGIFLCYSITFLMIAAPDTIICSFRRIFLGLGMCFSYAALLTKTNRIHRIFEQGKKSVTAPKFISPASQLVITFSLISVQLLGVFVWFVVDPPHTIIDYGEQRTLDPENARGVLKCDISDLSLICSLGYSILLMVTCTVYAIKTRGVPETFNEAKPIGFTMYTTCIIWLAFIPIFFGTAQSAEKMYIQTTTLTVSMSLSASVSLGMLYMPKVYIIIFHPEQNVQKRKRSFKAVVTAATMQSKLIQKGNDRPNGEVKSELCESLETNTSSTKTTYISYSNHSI

SMILES	z-score
CC(=O)N1Cc2ccccc2C(C)CC12CCCC2 (configuration not stated)	-0.432
CCOC(=O)C1=CN(c2cccc(F)c2)C=C(C(=O)OCC)C1c1cc(OC)c(O)c([N+](=O)[O-])c1	-0.207
Cc1ccc(S(=O)(=O)c2c(COC(=O)c3ccc(Cl)cc3)c(-c3ccccc3)nn2C)cc1	-0.106
O=C1CCCc2c1nc(-c1ccccc1)n2O	0.581
O=C(OCCN=C1NS(=O)(=O)c2ccccc21)C1CC(=O)N(c2ccc3ccccc3c2)C1 (configuration not stated)	-0.0146
Cc1ccc(/C=C2/NC(=O)N(Cc3ccc(Br)cc3)C2=O)o1	-0.0548
O=S1(=O)C=C(Oc2ccc(F)cc2)c2ccccc21	0.0133
CCCCn1c2ccccc2c2nnc(SCC(=O)NC3=NN=C(c4ccccc4)CS3)nc21	0.151
C=CCn1c(SCC(=O)N(C)C2CCS(=O)(=O)C2)nnc1-c1ccncc1 (configuration not stated)	0.693
CCCCP(=O)(CCCC)Cc1ccccc1O	0.0618
COc1ccc(CCNC(=O)CN(c2ccccc2OC)S(C)(=O)=O)cc1	0.153
O=S(=O)(NCCN1CCCC1)c1cccc2cccnc12	0.374
COc1ccc(CCn2nnnc2C(CC(C)C)N2CCN(c3ncccn3)CC2)cc1OC (configuration not stated)	-0.106
COc1ccc(S(=O)(=O)NCc2ccccc2Cl)cc1OC	-0.612
O=C(Oc1cccc(N2C(=O)C3C4c5ccccc5C(c5ccccc54)C3C2=O)c1)c1ccco1 (configuration not stated)	0.0948
COC(=O)c1c(NC(=O)c2cccnc2)sc(C(=O)N(C)C)c1C	-0.154
Cc1ccc2c(c1)-c1cc(C)nn1C(c1sccc1C)N2 (configuration not stated)	-0.539
CSCCC(NC(=O)c1cc([N+](=O)[O-])ccc1Cl)C(=O)O (configuration not stated)	0.0813
O=C(CCCCCn1c(=O)[nH]c2ccsc2c1=O)NCc1ccc2c(c1)OCO2	-0.285
COc1cccc(NC(=O)c2ccccc2-c2nc(-c3cccc(C)c3)no2)c1	-0.399
N#CCSc1nnc(COc2ccccc2)n1-c1ccccc1	0.0947
CCOC(=O)N1CCN(C(=S)NC(C)(C)C)CC1	0.0874

SMILES	z-score
Oc1c(C=Nc2cccc3cccnc23)sc2ccccc12	0.127
CCOC(=O)CSc1ncnc2c1nnn2-c1ccc(F)cc1	-0.336
Cc1ccc(NC(=O)Cn2nnc(C(=O)NCc3ccccc3)c2N)cc1C	1.36
COc1ccc(S(=O)(=O)Nc2c(C)n(C)n(-c3ccccc3)c2=O)cc1	-0.144
CN1C(=O)/C(=C/c2cn(CC(=O)N3CCCCC3)c3ccccc23)c2ccccc21	1.32
CN(C)c1ccc(C(CNS(=O)(=O)c2ccc(F)cc2)c2c[nH]c3ccccc23)cc1 (configuration not stated)	0.239
Cc1nc2ccc(S(=O)(=O)NCC(=O)NCCN3CCCCC3C)cc2s1 (configuration not stated)	-0.323
Clc1cccc(-c2ccc(/C=N/n3cnnc3)o2)c1Cl	active: 8.91
COC(=O)c1nn(Cc2ccccc2)c(=O)c2ccccc12	0.721
Cc1nnc(NC(=O)c2cccc(S(=O)(=O)N3CCc4ccccc43)c2)s1	0.437
O=C(O)CCc1ccc(-c2cccs2)n1NC(=O)c1ccc(Cl)cc1	0.532
CCCc1nc(SCC(=O)NCc2ccco2)c2c(=O)n(C)c(=O)n(C)c2n1	1.95
CC(C)(C)c1ccc(C(=O)NNC(=S)NCC2CCCO2)cc1 (configuration not stated)	-0.186
CNc1oc(-c2ccccc2Cl)nc1P(=O)(c1ccccc1)c1ccccc1	-0.354
O=C(CO/N=C/c1ccc2c(c1)OCO2)Nc1cccc(Br)c1	-0.0351
CN(C)c1ccc(NC(=O)CSc2nc(N)c(C(=O)Nc3ccc(N(C)C)cc3)s2)cc1	-0.193
O=C(Nc1ccc(S(=O)(=O)Nc2ncccn2)cc1)c1cncc(Br)c1	-0.359
Cc1ccc(S(=O)(=O)c2nnn3c2nc(Nc2cccc(C)c2)c2ccccc23)cc1	0.199
CC1Cc2ccccc2N1S(=O)(=O)c1cccc(C(=O)c2nccn2C)c1 (configuration not stated)	-0.449
CCN(CCO)Cc1csc2ccccc12	-0.304
CCOC(=O)C1=C(C)NC(=O)NC1c1ccc(OCC(=O)Nc2ccccc2)c(OC)c1 (configuration not stated)	-2.01
CC(C)(C)C(=O)/C(=C\c1ccc([N+](=O)[O-])cc1)n1cncn1	0.114

SMILES	z-score
O=C(NNS(=O)(=O)c1ccccc1)C1CCN(S(=O)(=O)c2ccccc2)CC1	0.653
O=C(CSc1n[nH]c(-c2cccs2)n1)N1CCN(S(=O)(=O)c2ccccc2)CC1	0.302
COc1ccc(C)cc1NC(=O)C(OC(=O)CNC(=O)c1ccc(Br)cc1)c1ccccc1 (configuration not stated)	-0.0808
CC1=NN(/C(=N\c2nnc(C)s2)Nc2ccc(C(C)(C)C)cc2)[C@H](c2ccc(C)cc2)S1	0.00752
CCCCN(C)C(=O)c1ccc(S(=O)(=O)N2CCOCC2)cc1	-0.13
COc1ccc(N(CCN2C(=O)c3ccccc3C2=O)C(=O)c2cccc([N+](=O)[O-])c2)cc1	-0.244
N#Cc1ccc(OCC(=O)N/N=C2/CC(c3ccccc3)Oc3ccccc32)cc1 (configuration not stated)	0.107
Cc1cc(/C(=N/O)C(C)(C)NO)ccc1Cl	-0.287
O=C(COC(=O)/C=C/c1ccc(OC(F)F)cc1)NCc1cccs1	-0.235
O=C(CN1C(=O)c2ccccc2S1(=O)=O)NCc1cccnc1	-1.17
c1cncc(-c2nc(-c3ccc4c(c3)OCO4)cs2)c1	-0.165
CN1CCN(CC(=O)n2c3c(c4ccccc42)CCCC3)CC1	1.15
CCCOc1ccc(C(O)(CCC)CCN2CCCCC2)cc1 (configuration not stated)	0.623
CC(C)(C)OC(=O)CN1C(=O)C(Sc2n[nH]c(-c3ccccc3)n2)CCc2ccccc21 (configuration not stated)	-0.388
S=C(NCc1ccco1)N1CCN(Cc2ccco2)CC1	-0.0222
CC(=O)c1ccc(CCCCCCCCCC(=O)O)s1	-0.202
CCc1nnc2sc(-c3ccc(NC(=O)CSc4ccc(Cl)cc4)cc3)nn12	-0.223
O=C(c1ccc(CS(=O)(=O)Cc2ccc(Cl)cc2)o1)N1CCCC1	0.047
COc1cc2oc3ccccc3c2cc1N(CC(=O)N(C)C)S(=O)(=O)c1ccccc1	0.121
C=CCNC(=O)c1onc(CSc2ccc(C)c(C)c2)c1C(=O)O	-0.413
O=C1NC(c2ccncc2)Nc2ccccc21 (configuration not stated)	-0.555
CCOCCC(=O)Nc1cc(Cl)ccc1OC	-0.0457

SMILES	z-score
Cc1ccc(S(=O)(=O)CCC(=O)O)cc1C	-0.128
COc1ccc(C2=NO[C@@H]3[C@@H]4C[C@@H]([C@H]5C(=O)N(C)C(=O)[C@@H]45)[C@H]23)cc1	0.241
Cc1ccc(OCc2ccc(C(=O)O)o2)c([N+](=O)[O-])c1	0.133
COc1ccc(-c2cc(C(F)(F)F)n3nc(C(=O)Nc4cc(C)on4)cc3n2)cc1OC	0.0365
COc1ccc(OCc2cccc(C(=O)Nc3cc(C)on3)c2)cc1	-0.194
Cc1nn(-c2ccc(F)cc2)c(Cl)c1/C=N/NC(=O)c1cccs1	0.0105
Clc1ccccc1SCc1nc2ccccc2[nH]1	0.555
O=C(Nc1ccccc1)OC(CN1CCCCC1)C(F)(F)F (configuration not stated)	-0.286
CCCC(=O)n1nc(-c2cccnc2)nc1N	0.575
COc1ccc(OC)c(-c2csc(N(Cc3ccco3)C(=O)c3cccs3)n2)c1	-0.0951
O=[N+]([O-])c1cccc(Cl)c1NCCNS(=O)(=O)c1ccccc1	-0.368
COc1cccc(-n2c(C)nnc2SCC(=O)Nc2ccccc2N2CCOCC2)c1	-0.0575
Cc1cc(=O)oc2cc(OCC(O)CN3CCc4ccccc4C3)ccc12 (configuration not stated)	-0.0362
Cc1cc(C)c(OCCN2C(=O)NC(C)(C)C2=O)c(Cl)c1	-0.0111
CCC(C)OC1OC(CO)C(O)C(O)C1NC(C)=O (configuration not stated)	-0.208
CC(C)c1nc2c(c(=O)c3ccccc3n2C)c(=O)n1-c1ccc(F)cc1	-1.91
CC1(C)CC(=O)C2=C(C1)Nc1cc3c(cc1C2c1ccc(F)cc1)OCO3 (configuration not stated)	-0.267
O=C(/C=C/N1CCOCC1)c1coc2ccccc12	0.828
CC(=O)c1ccc(N2CCN(C(=O)C3CCCN(S(=O)(=O)c4cnc[nH]4)C3)CC2)cc1 (configuration not stated)	-0.164
CNS(=O)(=O)c1ccc(NC(=O)c2ccccn2)cc1	-0.0858
Cc1ccc(OCC(=O)N2CCN(c3nnc(-c4ccccc4)c4ccccc34)CC2)cc1	-0.206
CCCSc1n[nH]c(NC(C)=O)n1	-0.053

SMILES	z-score
CCS(=O)(=O)NCc1ccc2c(c1)cc(C)n2C	0.0119
CC1=C(C(=O)Nc2ccccc2)C(c2ccncc2)C(C#N)=C(SCC(=O)NC(C)C)N1 (configuration not stated)	0.689
COc1ccc(C(=O)Nc2ccc(SC(F)F)cc2)cc1	-0.199
Cc1cccc(N2CC(C(=O)Nc3ccc4c(c3)OCO4)CC2=O)c1C (configuration not stated)	0.145
COc1ccccc1C(=O)NC(=S)Nc1ccc(N2CCCC2)cc1	-0.0718
Cc1ccc(S(=O)(=O)NC(C(=O)Oc2ccc3c(C(F)(F)F)cc(=O)oc3c2)c2ccccc2)cc1 (configuration not stated)	-0.289
CC1CCN(S(=O)(=O)c2ccc3c(c2)CCN3C(=O)CCC(=O)O)CC1	0.0313
O=C(O)C(=O)/C(=C\c1cccc2ccccc12)c1ccc2ccccc2n1	1.04
O=C(Nc1ccc(F)cc1)C(c1ccccc1)N1CCN(S(=O)(=O)c2ccc3ccccc3c2)CC1 (configuration not stated)	0.223
CCOC(=O)/C(C#N)=C/C1=C(N2CCCC2)CC(C)(CC)OC1 (configuration not stated)	-0.501
Cc1cccc(NC(=S)NNC(=O)c2ccco2)c1	0.0496
COC(=O)[C@@H](NC(=O)NCc1ccco1)C(C)C	-1.12
COc1cccc(/C=C2\N=C(c3c(-c4ccccc4)noc3C)OC2=O)c1OC	-0.503
O=C(CSc1nc2ccccc2s1)N1CCCCC1	0.552
CC(=O)c1cccc(NC(=O)NCc2cccnc2)c1	0.165
COC(=O)c1ccccc1NC(=O)C1CC(=O)N(c2ccc(C)cc2)C1 (configuration not stated)	-0.265
COc1cc2[nH]c(=S)n(N(C(C)=O)C(C)=O)c(=O)c2cc1OC	-0.0747
CCCOc1ccc(C2C(C(=O)c3ccc(C)o3)=C(O)C(=O)N2CCCn2ccnc2)cc1 (configuration not stated)	0.368
O=C(Nc1ccc2nc(-c3ccccn3)[nH]c2c1)C1CCCCC1	0.0178
